The campaign covered roughly 150,000 compounds. About 540 (0.36%) showed an effect of 50% or more. The list shows a part of the results.

The test system of this test is Plasmodium falciparum. In words: Primary screen in NF54 nanoGlo assay, in single point, at 2uM, 72h; a lower Z score goes with more inhibition. Conditions: timepoint 72 hour. In kind it is functional, Erythrocyte.
In the case of `COc1ccc(C(=O)Nc2ccc(-n3nc(OCc4ccc(F)cc4)nc3-c3cccc(F)c3)cc2)cc1`, the “% Inhibition” value is reported as 0% and the Z score was -0.05.
For `O=C(NC1CC(=O)N2CCCCC12)N1CCCC(OC2CCC2)C1` (stereo unspecified) the same measures were -13% and 1.15.
On the same counts, the results for `COc1cc(NC(=O)CN(CCOc2ccccc2)CCOc2ccccc2)cc(OC)c1` are -16% and 1.69.
For `Cc1occc1C(=O)N[C@H]1CCCC2(C1)OCCO2` the same measures were -5% and 1.09.
For `CCCc1nc(CNC(=O)c2sc(OC)nc2C)cs1`, the “% Inhibition” value amounted to 9% and the Z score is -1.89.
In the case of `O=C(c1cnn(Cc2ccccc2)c1)N1CC2CCCCC2C1` (stereo unspecified), the “% Inhibition” value was -13% and the Z score is listed as 1.96.
On the same counts, the results for `O=c1[nH]c2cc3nc(-c4cc(Cl)ccc4OCCCn4ccnc4)[nH]c3cc2[nH]1` are 0% and 0.02.
For `CN(C)CCOc1ccc(C(=O)Nc2cccc3[nH]ccc23)cn1`, the “% Inhibition” value is -7% and the Z score amounted to 0.95.
On the same counts, the results for `O[C@@H]1c2ccc(-c3cc(F)cc(Cl)c3)cc2OC[C@H]1N1CCCC1` are -9% and 1.17.
For `COc1ncc(NC(=O)c2ccc3c(c2)OCO3)c(OC)n1` the same measures were -8% and 1.44.
For `COc1ccc2[nH]c3c(c2c1)CCN1C(=O)N(c2ccc(C(=O)NCc4ccccc4Cl)cc2)C(=O)[C@]31C` the same measures were -9% and 1.22.
`COc1cc([C@H]2CC(=O)NCc3nc(N)sc32)ccc1OCC=C(C)C`: the “% Inhibition” value was -2% and the Z score came to 0.19.
Regarding `COc1ccc(NC(=O)c2ccc(NC(=O)Cn3c(=O)ccn(Cc4ccccc4)c3=O)cc2)cc1`, the “% Inhibition” value was -19% and the Z score was determined as 1.94.
On the same counts, the results for `Cc1cc(O)n2nc(Cc3nc([C@H]4CCOC4)no3)nc2n1` are -2% and 0.4.
On the same counts, the results for `CCc1nnc(CNC(=O)Nc2cc(-n3cnnn3)cc(C)c2C)s1` are -6% and 0.74.
For `CC(NC(=O)COCC1CCCO1)c1csc2ccccc12` (stereo unspecified) the same measures were -16% and 2.06.
As to `CN(Cc1ccccc1)C(=O)[C@H]1O[C@H](CCN2CCOCC2)CC[C@@H]1O`, the “% Inhibition” value is given as -8% and the Z score was determined as 1.19.
For `Cn1c(CN2CCc3ccccc32)cc(=O)n(C)c1=O` the same measures were -11% and 1.49.
On the same counts, the results for `COc1ccc(C(=O)N2Cc3cccnc3C2)cc1C` are -19% and 2.22.
For `CC(C)c1ccc2cc(C(=O)N3CCO[C@]4(CNCCOC4)C3)[nH]c2c1` the same measures were 1% and -0.1.
In the case of `CC(NC(=O)c1ccc(OC2CCOC2)nc1)c1ccccc1` (stereo unspecified), the “% Inhibition” value was -5% and the Z score was 1.02.
On the same counts, the results for `CCNC(=O)CN(CC)C(=O)c1cc(F)c(Cl)cc1Cl` are -6% and 0.47.
On the same counts, the results for `CC[C@H](C)NC(=O)NCCc1ccc(CC2CCN(C(C)C)CC2)cc1` are 7% and -0.86.
On the same counts, the results for `Cc1nccn1CC[C@H](NCc1cn(C)nc1-c1ccc2c(c1)OCCO2)c1ccccc1` are -17% and 1.5.
As to `CC(C)[C@@](C)(O)CNC(=O)c1sccc1OC(F)F`, the “% Inhibition” value was -7% and the Z score is 1.34.
For `Cc1cnc2c(C(=O)N3CCc4[nH]nc(-c5ccccc5F)c4C3)cnn2c1` the same measures were -18% and 2.4.
On the same counts, the results for `CN1CC2(C[C@H]1c1noc(-c3ccccn3)n1)CN(C(=O)CN1CCOCC1)C2` are -9% and 1.49.
On the same counts, the results for `N#Cc1cc(NC2CCCC2CO)nc2ccccc12` (stereo unspecified) are -11% and 1.66.
On to `CCC[C@H]1CN(C(=O)c2ccc(C)s2)C[C@@H]1C(=O)O`, for which the “% Inhibition” value is reported as -4% and the Z score is reported as 0.62.
`Cn1c(CN2CCN(C(=O)C3CCCC3)CC2)cc(=O)n(C)c1=O`: the “% Inhibition” value is -6% and the Z score is on record as 0.53.
On the same counts, the results for `Cc1ccc(C(F)(F)F)cc1NC(=O)N1CCO[C@]2(CCOC2)C1` are 10% and -1.1.
On the same counts, the results for `O=C(c1cc(F)ccc1F)N1CC[C@H](c2nc(C3CCOCC3)no2)C1` are -28% and 4.15.
On the same counts, the results for `Cc1c(C(=O)NCc2ccccc2)c(C)n2cnn(CC(=O)Nc3ccccc3)c(=O)c12` are -14% and 2.21.
For the molecule `CC1=NN(c2ccc(C)cc2)C(=O)C12Cc1cc(C(F)(F)F)ccc1N1CCC(Cc3ccccc3)CC12` (stereo unspecified), the “% Inhibition” value was -1% and the Z score is on record as 0.19.
Regarding `O=C(c1cccs1)N1CCC[C@H](NS(=O)(=O)N2CCCCC2)C1`, the “% Inhibition” value is -10% and the Z score is reported as 1.47.
For `Cc1nc(C(=O)NCCN2CCCC2)c(C)o1` the same measures were 4% and -0.49.
For `CC(C)(C)CC(=O)N[C@H](c1cnc2ccccc2c1)C1CC(O)C1` (stereo partly specified) the same measures were -7% and 1.37.
On the same counts, the results for `O=C(NCc1ccccn1)N1CCC[C@H]1c1ccc[nH]1` are -1% and 0.16.
Turning to `CCOc1ccc(Cl)cc1S(=O)(=O)N1CCC[C@H](C(=O)NCCCn2ccnc2)C1`, the “% Inhibition” value was -34% and the Z score is 3.98.
For `COc1cccc(N2C(=O)N[C@H](C)C2=O)c1` the same measures were 36% and -1.61.
As for `O=C(NCC[C@H]1CCCN(CCC(F)(F)F)C1)c1ccncn1`, the “% Inhibition” value was -8% and the Z score came out at 1.07.
For the molecule `Cn1ncc(-c2ccccc2)c1NC(=O)N1CCN[C@@H]2CS(=O)(=O)C[C@@H]21`, the “% Inhibition” value is recorded as -3% and the Z score is 0.46.
On to `CC(C)[C@H](CNC(=O)c1nc2c(s1)CCC2)N1CCN(C)CC1`, for which the “% Inhibition” value was -5% and the Z score is 0.83.
On the same counts, the results for `CC1CN(C(=O)Cn2cc(NC(=O)c3cccc(F)c3F)cn2)CC(C)O1` (stereo unspecified) are 8% and -1.01.
Turning to `N#Cc1cccc(COc2cccc(NC(=O)C(=O)NCc3cc[nH]n3)c2)c1`, the “% Inhibition” value is -7% and the Z score is listed as 1.16.
For `CC1(C)C[C@]1(CNC(=O)CCc1cc(O)no1)c1ccccc1` the same measures were 6% and -1.09.
For `COc1ccccc1Cn1c(C(=O)O)cc2ccccc2c1=O` the same measures were -14% and 1.78.
On the same counts, the results for `CCN1CC2(CCN(C(=O)N(C)C)CC2)C[C@@H](c2ccccc2)C1=O` are -8% and 0.97.
`OC[C@@H]1COCCN(c2nccc(C(F)(F)F)n2)C1`: the “% Inhibition” value is on record as -13% and the Z score was found to be 2.51.
On the same counts, the results for `CC1=CC(c2ccccc2)=Nc2nonc2N1` are 4% and -0.75.
On the same counts, the results for `COC(=O)CN(CC(=O)OC(C)(C)C)C(=O)c1cc(F)ccc1F` are -20% and 2.48.
On the same counts, the results for `O=C(O[C@@H](Cn1cncn1)c1ccc(Cl)cc1)c1ccc(F)cc1` are -16% and 1.87.
In the case of `COc1cc([C@H]2CC(=O)Nc3ncn(-c4cccc(C(F)(F)F)c4)c32)ccc1O`, the “% Inhibition” value is reported as 7% and the Z score is listed as -0.88.

Values taken from ChEMBL document CHEMBL4888484, “Replenishing the malaria drug discovery pipeline: Screening and hit evaluation of the MMV Hit Generation Library 1 (HGL1) against asexual blood stage Plasmodium falciparum ,using a nano luciferase reporter read-out” (2022).
